Hit rate of the full screen: of about 2,200 compounds, fewer than 10 were called active. Some of the results follow. The source made no clear call on entries shown without one.
Target: GTPase KRas (Homo sapiens) (UniProt P01116)
Assay: Cysteine mutants labelled by reactive fragments (mass read-out) (AID 2202238)
Parameters: protein at 5 µM with 500 µM competing thiol for 1.5 h
Conditions: KRAS G12D cysteine mutants, disulfide tethering, MALDI-TOF labeling; stronger effect = higher value; H27C mutant labeling; fragment at 500 µM

Chain of UniProt P01116 (P01116 whole entry, looked up, the tested form may be a part): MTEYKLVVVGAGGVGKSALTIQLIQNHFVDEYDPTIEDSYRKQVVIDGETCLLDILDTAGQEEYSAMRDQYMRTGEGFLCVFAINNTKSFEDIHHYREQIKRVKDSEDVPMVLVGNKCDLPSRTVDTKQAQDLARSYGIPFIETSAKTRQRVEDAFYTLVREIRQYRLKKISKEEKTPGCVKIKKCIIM

| SMILES | percent labeling [%] |
| --- | --- |
| Cc1nn(C)c(Oc2cccnc2)c1NC(=O)CCS | 33.5 |
| O=C(NCCS)C1CC(O)(c2cccc(Cl)c2)C1 (stereo unspecified) | 47.2 |
| Cn1cc(C(=O)NCCS)c(-c2ccc3c(c2)OCCCO3)n1 | 41.2 |
| Cc1cc(Br)cc2cc(C(=O)NCCS)oc12 | 28.6 |
| O=C(Cc1csc(N2CCCC2=O)n1)NCCS | 34.3 |
| O=C(CCS)N1CCC(c2ncc(-c3ccc(F)c(F)c3)[nH]2)CC1 | 29.1 |
| COc1ccc2nc(C)c(C(=O)NCCS)n2n1 | 54.1 |
| O=C(CCS)Nc1ccc(-c2n[nH]c3c2COCC3)cc1 | 40.5 |
| O=C(NCCS)C1CCN(S(=O)(=O)c2ccc3[nH]c(=O)sc3c2)CC1 | 22.3 |
| O=C(NCCS)c1ccnc2cc(Cl)ccc12 | 41.3 |
| O=C(CCS)N(CC(F)F)C1CCCCC1 | 32.1 |
| CN(C(=O)c1cccc(C(=O)NCCS)c1)c1ccccc1 | 41 |
| O=C(NCCS)C1(c2cc(F)cc(Br)c2)CC1 | 31.1 |
| CN(C)c1ccc2cc(C(=O)NCCS)ccc2c1 | 18.7 |
| CCC(C)c1nc(C)c(CC(=O)NCCS)c(C)n1 (stereo unspecified) | 34.7 |
| O=C(CCc1nc(-c2ccc(Br)cc2)no1)NCCS | 11.6 |
| O=C(CCS)NCc1cn(-c2ccccc2)nc1-c1ccc(F)cc1 | 22 |
| O=C(CCS)NC1CCC(c2nc3ccccc3[nH]2)CC1 (stereo unspecified) | 41.9 |
| COc1ccccc1C(=O)NCCS | 52 |
| Cc1cccc(-c2csc(NC(=O)CCS)n2)c1 | 20.9 |
| O=C(CCS)N1CCC(Nc2ccncc2)CC1 | 58.2 |
| O=C(NCCS)c1cc(-c2ccccc2F)no1 | 23.9 |
| O=C(CCS)Nc1ccc(OC2CCCC2)nc1 | 27.8 |
| O=C(CCS)Nc1cn(-c2ccccc2)nn1 | 34.6 |

| SMILES | percent labeling [%] |
| --- | --- |
| O=C(CCS)NCc1cccnc1-n1cccn1 | 28.7 |
| COc1ccc(CN2CCN(C(=O)CCS)CC2)cc1F | 49.2 |
| CC(C)(Cc1c[nH]c2cc(F)ccc12)NC(=O)CCS | 27 |
| Cc1cn2cc(CC(=O)NCCS)nc2s1 | 33.2 |
| O=C(CCS)NCC1CN(c2ccccc2)C(=O)O1 (stereo unspecified) | 35.2 |
| O=C(NC1CCN(C(=O)CCS)CC1)c1ccccc1 | 44.9 |
| Cc1cn(-c2cccnc2)nc1NC(=O)CCS | 37.3 |
| CCOc1ccccc1-c1cc(C(=O)NCCS)[nH]n1 | 26.2 |
| CCOC(=O)c1nnc(C2CCN(C(=O)CCS)CC2)s1 | 37.3 |
| CC(NC(=O)CCS)C1(n2ccnn2)CC1 (stereo unspecified) | 27.3 |
| O=C(CCS)N1CC2CCCS(=O)(=O)C2(C(F)(F)F)C1 (stereo unspecified) | 33.5 |
| Cc1nc(-c2cc(C(=O)NCCS)cs2)cs1 | 34.5 |
| O=C(NCCS)c1ccc(-c2ccc3c(c2)OCCO3)s1 | 21.7 |
| O=C(NCCS)c1cc(-c2cccc(C(F)(F)F)c2)ccn1 | 26.3 |
| O=C(NCCS)c1cnc(Oc2ccccc2)cn1 | 20.7 |
| CC(C)N(Cc1cccs1)C(=O)CCS | 36.7 |
| O=C(NCCS)c1sc(-c2ccccc2)nc1C(F)F | 30.2 |
| Cc1oc(-c2ccccc2)nc1CC(=O)NCCS | 29.7 |
| O=C(CN1CC(C(F)(F)F)CCC1=O)NCCS (stereo unspecified) | 35.8 |
| CC1(C2CC2)NC(=O)N(c2cccc(NC(=O)CCS)c2)C1=O (stereo unspecified) | 42.4 |
| CN(C)C(=O)CCn1ccc(NC(=O)CCS)n1 | 29.1 |
| Cc1nc(C(=O)NCCS)c(C)o1 | 32.3 |
| CN(C)Cc1nc(C2(NC(=O)CCS)CCCC2)no1 | 28.9 |
| O=C(NCCS)c1cccc(CN2C(=O)CNC2=O)c1 | 47.6 |

| SMILES | percent labeling [%] |
| --- | --- |
| COC(=O)[C@@H]1C[C@H](N2C(=O)CNC2=O)CN1C(=O)CCS | 36.2 |
| O=C(CCS)N1CCCN2c3ccccc3CC2C1 (stereo unspecified) | 23.6 |
| COc1ccc(C(=O)NCCS)cc1-c1ccnn1C | 42.6 |
| COc1cnc(C2CCCN2C(=O)CCS)[nH]c1=O (stereo unspecified) | 29.6 |
| O=C(CCS)NCc1ccn(-c2cccc(Cl)c2)n1 | 31.7 |
| CCc1ccc(C(=O)Nc2sccc2C(=O)NCCS)cc1 | 21.1 |
| O=C(NCCS)[C@@H]1CCCO[C@H]1c1ncc[nH]1 | 26.1 |
| O=C(CCC(=O)N1CCN(c2ncccn2)CC1)NCCS | 28.7 |
| O=C(Cc1ccc(C(F)(F)F)nc1)NCCS | 26.9 |
| Cc1nc2ccnn2c(C)c1CCC(=O)NCCS | 30.2 |
| CN1C(=O)c2ccccc2Sc2ccc(NC(=O)CCS)cc21 | 33.9 |
| O=C(NCCS)c1csc(-c2ccc(Cl)cc2)c1 | 17.5 |
| O=C(CCS)NCCn1ncc2ccccc2c1=O | 39.3 |
| CN(C)c1noc(C2CN(C(=O)CCS)C2)n1 | 32.2 |
| O=C(CCS)Nc1cccc(-n2cccc2)c1 | 36.9 |
| O=C(CCS)NCCc1cc(Cl)sc1Cl | 42.5 |
| O=C(CCS)NC1CCC2(CC1)COCCO2 (stereo unspecified) | 29.1 |
| O=C(NCCS)C1CCCN1C1CCOCC1 (stereo unspecified) | 29.7 |
| O=C(NCCS)C1CCN(C2CCCCC2)C1 (stereo unspecified) | 46.4 |
| O=C(Cn1cc(Br)cn1)NCCS | 32.9 |
| Cc1nn(-c2cncc(Cl)n2)c(C)c1CC(=O)NCCS | 34.3 |
| N#Cc1cc(Oc2ccc(CC(=O)NCCS)cc2)ccn1 | 36 |
| Cc1[nH]c2c(Cl)ccc(Cl)c2c1CCNC(=O)CCS | 24.7 |
| COc1ccc(C)cc1C1(C)NC(=O)N(CC(=O)NCCS)C1=O (stereo unspecified) | 27.1 |

| SMILES | percent labeling [%] |
| --- | --- |
| Cc1nc2nccc(C(=O)NCCS)c2[nH]1 | 44.8 |
| CC(Cc1cncc2ccccc12)C(=O)NCCS (stereo unspecified) | 37.2 |
| O=C(CCS)Nc1ccn(CCN2CCOCC2)n1 | 34.8 |
| O=C(CCS)N1CCc2sccc2C1c1ccc(Cl)cc1 (stereo unspecified) | 34.8 |
| O=C(CCS)Nc1cc2c(cc1Cl)OCO2 | 34.7 |
| Cn1cc(NC(=O)CCS)c(Oc2ccccc2)n1 | 42.4 |
| CC1CCC(C)N1CC(=O)NCCS (stereo unspecified) | 52.1 |
| O=C(NCCS)c1cnc(C2CCOCC2)nc1 | 41.2 |
| O=C(CCS)N(Cc1ccc(-c2ccccc2C(F)(F)F)o1)C1CC1 | 22.2 |
| O=C(NCCS)c1nc(-c2cccs2)n(-c2cccc(F)c2)n1 | 25.9 |
| NC(=O)C1CCC2(CC1)CC(NC(=O)CCS)C2 (stereo unspecified) | 37.9 |
| O=C(CCS)Nc1cc(Br)ccc1C(F)F | 38.2 |
| O=C(NCCS)C1CCOCC12CCCCC2 (stereo unspecified) | 29.4 |
| O=C(NCCS)c1cccc(-n2ccnc2)n1 | 65.4 |
| CC(=O)Nc1ccc(C)c(NC(=O)CCS)c1 | 39.1 |
| O=C(CNc1nc(C(F)(F)F)nc2ccccc12)NCCS | 27.6 |
| O=C(NCCS)c1ccoc1C1(O)CCOCC1 | 46.3 |
| O=C(CCC1NC(=O)N(c2ccc(Cl)cc2)C1=O)NCCS (stereo unspecified) | 32.1 |
| Cn1c2ccccc2c2cc(C(=O)NCCS)sc21 | 29.9 |
| CN(C)c1nccc(N2CCN(C(=O)CCS)CC2)n1 | 45.6 |
| O=C(CCS)N(c1cc(F)cc(F)c1)C1CC1 | 31.6 |
| CN(C)c1ncnc2c1cc(C(=O)NCCS)n2C | 37.3 |
| NC(=O)c1cc2n(n1)CC1(CCN(C(=O)CCS)CC1)OC2 | 47.6 |
| O=C(CCS)Nc1cc(F)c(OC(F)F)cc1F | 49.3 |

| SMILES | percent labeling [%] |
| --- | --- |
| O=C(NCCS)C1CCC(NC(=O)C2CC2)CC1 (stereo unspecified) | 35 |
| Cc1ccc(OC2CCN(C(=O)CCS)CC2)cc1 | 49.6 |
| O=C(Cn1cnc(-c2ccccc2)cc1=O)NCCS | 25.6 |
| Cc1ccc(C(=O)NCCS)cc1NC(=O)c1ccccc1 | 28 |
| O=C(CN1CCc2ccccc2C1=O)NCCS | 36.2 |
| O=C(NCCS)c1ccn2cc(C(F)(F)F)nc2c1 | 31 |
| COc1ccc(-c2ncc(C(=O)NCCS)s2)cc1OC | 23.4 |
| CCCOc1nc2ccccc2cc1C(=O)NCCS | 15.9 |
| Cc1cccc(NC(=O)N2CCCC(C(=O)NCCS)C2)c1 (stereo unspecified) | 27.1 |
| O=C(NCCS)c1ccc(Oc2cccc(Cl)c2Cl)cc1 | 50.3 |
| O=C(NCCS)c1cc(OCC(F)(F)F)c2ccccc2n1 | 30.9 |
| Cc1cc(C)c2cc(C(=O)NCCS)sc2n1 | 35.6 |
| O=C(CCc1nc2cc(Br)ccc2s1)NCCS | 9.9 |
| CN(C)CCOc1ccc(NC(=O)CCS)c(F)c1 | 60 |
| CC(C)(C)OC(=O)NCc1nc(C2CCN(C(=O)CCS)CC2)n[nH]1 | 21.6 |
| N#Cc1c(N)sc2c1CCN(C(=O)CCS)C2 | 22.2 |
| Cc1ncc(NC(=O)CCS)cc1C(N)=O | 39.9 |
| Cc1nn(Cc2ccc(Cl)cc2)c2sc(C(=O)NCCS)cc12 | 27.3 |
| O=C(Cc1ccc2c(c1)OC(F)(F)O2)NCCS | 29.4 |
| O=C(CCS)NC1c2ccccc2CC12CCOCC2 (stereo unspecified) | 39.9 |
| O=C(NCCS)c1coc(C2CCCCC2)n1 | 23.2 |
| CC(CC(=O)NCCS)NC(=O)C1CCCC1 (stereo unspecified) | 28.1 |
| Cc1cc(C)c(C(=O)NC2CCN(C(=O)CCS)CC2)o1 | 46.2 |
| COc1ccc(C(=O)NC(C(=O)NCCS)c2ccccc2)cc1 (stereo unspecified) | 26 |

| SMILES | percent labeling [%] |
| --- | --- |
| CCCCN(C)c1ncc(Cl)c(C(=O)NCCS)n1 | 21.1 |
| CCOC(=O)c1n[nH]c2c1CN(C(=O)CCS)CC2 | 43.9 |
| O=C(Cn1nc(C(F)F)cc1C(F)F)NCCS | 30.9 |
| Cc1cc(=O)c(C(=O)NCCS)nn1-c1ccccc1F | 43.8 |
| CCOC(=O)c1nn(-c2ccccc2)c2c1CN(C(=O)CCS)CC2 | 28.7 |
| O=C(CCS)NCC12CCC(CO)(CC1)OC2 | 27.3 |
| O=C(CCS)Nc1ccc(OCc2ccccc2)nc1 | 25.2 |
| CC(Cn1cnc2c(cnn2C)c1=O)NC(=O)CCS (stereo unspecified) | 35.6 |
| CCc1nc2nccc(C(=O)NCCS)c2[nH]1 | 36.9 |
| O=C(CCS)NCc1cccc(C(F)F)c1 | 36.7 |
| O=C(NCCS)c1ncn2cc(Cl)ccc12 | 30 |
| Cc1nn(C)c2ncc(NC(=O)CCS)cc12 | 35.4 |
| O=C(CCS)Nc1ccc(-c2ccccc2)cc1F | 23.4 |
| Cc1[nH]cnc1C(=O)NCCS | 6.6 |
| CC1(C)CCc2onc(C(=O)NCCS)c2C1 | 28 |
| O=C(NCCS)C1CCCN1c1ncnc2ccccc12 (stereo unspecified) | 35.9 |
| O=C(CCS)NCc1cccc(OCc2ccccc2)c1 | 30 |
| Cn1cnc(-c2ccc(C(=O)NCCS)cc2)n1 | 44.1 |
| O=C(NCCS)c1ccc(-c2csnn2)cc1 | 18.9 |
| Cc1nn(C)c(NC(=O)CCS)c1-c1ccccc1 | 41.5 |
| Cc1c(C(=O)NCCS)ccn1Cc1ccccc1 | 28.7 |
